Test results from PubChem BioAssay AID2546 (National Center for Advancing Translational Sciences (NCATS), 2010).
Out of some 310,000 compounds screened, about 11,000 (3.5%) were called active. The shares of active, inactive and inconclusive entries below differ from those in the screen. The call rests on the fitted dose curve; in most records, active means well fitted inhibition curve with a large enough effect; inconclusive means small, poorly fitted or top-dose-only effect, or effect the other way; inactive means flat fitted curve, though single readings scatter. Potencies of inconclusive entries are left out as doubtful fits. More than one record can exist for a structure, and the calls need not agree.

Assay: VP16 counterscreen qHTS for inhibitors of ROR gamma transcriptional activity;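 further: Gal4-VP16 expression switched on by copper sulfate through the metallothionein promoter; nearly all actives have a fitted effect of over 50% in size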
Conditions: Drosophila S2 Gal4-VP16 UAS-luciferase, luminescence, 20 h; activity, negative = inhibition: at 53.6 µM (top of the series)
On the % scale 0 is the no-effect control and ±100 the full control effect; potency means the concentration at half of the fitted maximal effect; tags describe the fitted curve by direction and shape.

Row | Structure (SMILES) | Potency | activity, negative = inhibition
1 | CCC(=O)N(Cc1c(C)nn(-c2ccccc2)c1Cl)c1ccc(Cl)cc1 | inconclusive [activator, single point] | –
2 | Fc1ccccc1NC(=S)N(CCCN1CCOCC1)Cc1cccnc1 | – | inactive: 3.22%
3 | CSc1cc(-c2ccncc2)nc(-c2ccc(Cl)cc2)c1 | – | inactive: -9.65%
4 | COC(=O)CC1=NN(c2nc3ccccc3s2)C(=O)/C1=C/N(C)C | – | inactive: -12.6% [at 10 µM]
5 | Cc1cccc(OCc2nc3ccccc3n2C)c1 | inconclusive [inhibitor, single point] | –
6 | COC(=O)c1ccc2c(=O)[nH]c(CSc3nc(C)cs3)nc2c1 | inconclusive [activator, single point] | –
7 | O=C(O)CCC(=O)Nc1ccc(Cc2ccc(NC(=O)CCC(=O)O)c(O)c2)cc1O | – | inactive: -0.371%
8 | Cc1ccc(N=Nc2c(N)nn3c(C)cc(C)nc23)cc1 | inconclusive [inhibitor, single point] | –
9 | Oc1c(N=NC(=S)Nc2ccccc2F)c2ccccc2n1Cc1ccccc1F | active: 3.98 µM | –
10 | O=C(CN1CCCCCC1)Nc1ccc(Br)cc1[N+](=O)[O-] | inconclusive [activator, single point] | –
11 | CC(C)(C)OC(=O)NCCCC[C@H](NC(=O)c1nc[nH]c1C(=O)NC1CCN(C(=O)OC(C)(C)C)CC1)C(=O)OC(C)(C)C | inconclusive [inhibitor, single point] | –
12 | C=CCn1c(O)c(N=NC(=S)Nc2ccccc2F)c2ccccc21 | active: 1.78 µM | –
13 | COC(=O)c1cccc(CSc2nnc(C)s2)c1 | inconclusive [inhibitor, single point] | –
14 | O=C(Nc1cccc(-c2cccc(F)c2)c1)C1CCN(CC2CCOC2)CC1 (centres undefined) | – | inactive: -0.775%
15 | CCOC(=O)C1=C(c2ccccc2)NC(=S)NC1C (centres undefined) | inconclusive [inhibitor, single point] | –
16 | CCOC(=O)c1cnc2ccccc2c1Nc1ccc2c(c1)OCCO2 | inconclusive [inhibitor, single point] | –
17 | COc1ccc(OCc2nnc(SCC(=O)Nc3ccccc3F)o2)cc1 | – | inactive: 0.206%
18 | S=c1[nH]ccn1-c1ccc(Cl)cc1 | inconclusive [inhibitor, single point] | –
19 | Cc1ccc(NC2=CC(=O)c3sc(C)nc3C2=O)cc1 | active: 2.51 µM | –
20 | COc1ccc(-c2nc(CSCC(=O)NCCCN3CCCC3=O)c(C)o2)cc1 | active: 11.2 µM | –
21 | O=C(CC(SCCO)c1ccc2c(c1)OCO2)c1cccs1 (centres undefined) | – | inactive: 6.21%
22 | Nc1nc(NCCO)nc(NC2CCCCC2)c1[N+](=O)[O-] | – | inactive: 1.83%
23 | Cc1ccc(C)c(N=Nc2nc3ccccc3n2C)c1 | active: 8.91 µM | –
24 | CC(/C=C1\SC(=S)N(c2ccc(C(=O)O)cc2)C1=O)=C\c1ccccc1 | inconclusive [inhibitor, partial curve] | –
25 | Cc1ccc(F)c(C2C3C=CCCC3(C)C(=O)N2Cc2ccccc2)c1 (centres undefined) | active: 31.6 µM | –

Row | Structure (SMILES) | Potency | activity, negative = inhibition
26 | NC(=S)N/N=C1\CCSc2ccc(Cl)cc21 | active: 10 µM | –
27 | Cc1noc(C)c1CC(=O)N1CCCC(C(=O)c2ccc(C(C)(C)C)cc2)C1 (centres undefined) | inconclusive [inhibitor, partial curve, poor fit] | –
28 | COc1ccc(NC(=O)C2CC(=O)OC2c2ccccc2)cc1 (centres undefined) | – | inactive: -0.939%
29 | CC1=CC(C)(C)N2C(=O)C(=Nc3ccc(O)cc3)c3cccc1c32 | inconclusive [inhibitor, single point] | –
30 | Cn1c(SCC(=O)Nc2ccccc2)nc2ccccc2c1=O | inconclusive [inhibitor, single point] | –
31 | Cc1cccc(/C(N)=N/OC(=O)c2cccnc2)c1 | inconclusive [inhibitor, single point] | –
32 | CN1CCN(Cc2c(O)ccc3c(=O)c(Oc4ccccc4Cl)c(C(F)(F)F)oc23)CC1 | – | inactive: 12.7%
33 | COc1ccc(NC(=O)COc2ccc(/C=N/n3c(C)nnc3C)cc2OC)cc1 | inconclusive [activator, partial curve] | –
34 | COc1cccc(CN(CC(=O)NCc2ccc(F)cc2)C(=O)c2ccco2)c1 | – | inactive: 1.7%
35 | Cc1ccc(C(=O)Nc2ccccc2C(=O)Nc2ccccn2)cc1Cl | active: 15.8 µM | –
36 | COC(=O)/C=C1\SC(=NC(=O)c2ccc(C)cc2)NC1=O | inconclusive [activator, single point] | –
37 | O=C(CSc1n[nH]c(=O)n1Cc1ccccc1)Nc1ccc(F)c(F)c1F | inconclusive [inhibitor, single point] | –
38 | O=C(NNc1ccc([N+](=O)[O-])cc1[N+](=O)[O-])c1ccco1 | inconclusive [inhibitor, partial curve] | –
39 | Cn1c(=O)c(C(=O)NNC(=O)c2ccccc2Br)c(O)c2ccccc21 | inconclusive [inhibitor, single point] | –
40 | CCCCCCOc1ccc(/C(C)=N/NC2=NCCN2)cc1[N+](=O)[O-] | inconclusive [inhibitor, single point] | –
41 | CN1CC(=O)N(CC(=O)N2N=C(c3ccc(Cl)cc3)CC2c2ccco2)C1=O (centres undefined) | – | inactive: -21.8%
42 | Nc1cc([N+](=O)[O-])ccc1O | active: 12.6 µM | –
43 | CC(C)OC(=O)c1sc2nc(-c3ccccc3)ccc2c1N | inconclusive [inhibitor, partial curve, poor fit] | –
44 | CCc1ccc(/C=C/C(=O)c2ccc(S(=O)(=O)N(C)C)cc2)cc1 | inconclusive [inhibitor, single point] | –
45 | O=C(N[C@@H](c1ccccc1)[C@@H]1C[C@H]1C(=O)NCc1ccccc1)OCc1ccccc1 | inconclusive [inhibitor, single point] | –
46 | Cc1sc(NC(=O)c2ccco2)c(CN2CCN(c3ccc(F)cc3)CC2)c1C | – | inactive: 22.6%
47 | c1ccc(-c2cc(-c3ccccc3)[nH]n2)cc1 | inconclusive [activator, full curve] | –
48 | N#CC(C(=S)Nc1ccccc1)c1nc2ccccc2[nH]1 (centres undefined) | active: 2.51 µM | –
49 | Cc1[nH][nH]c(=O)c1[C@@H](c1ccccc1[N+](=O)[O-])C(C#N)C#N | – | inactive: 1.09%
